From PubChem BioAssay AID463173 (ICCB-Longwood Screening Facility, Harvard Medical School, 2010) come the findings set out here.

The campaign covered roughly 52,000 compounds. About 1,700 (3.3%) were called active. Cut-off read from the data, not from the text of the source: active = survival mostly below about 52% (no sharp cut-off); inactive = mostly above about 56%. This is one part of the list.

The experiment has as its system Wild type. The experiment in a line: growth inhibition of S. aureus wild type versus tarO mutant, primary screen, teichoic acid synthesis inhibitors, RN4220, OD600 (AID 463173). To be noted: S. aureus RN4220 wild type/DeltatarO growth, OD600, 18 h, active compounds read low, screened at 18.75 µg/mL (by protocol).
On to `Cc1sc2nc(C(C)C)n3c(=S)[nH]nc3c2c1C`, for which the survival was inactive: 103%. With `Cc1cc(C)cc(-n2cnc3ccccc3c2=O)c1` the figure was inactive: 106%; with `N#Cc1ccc(CN2C(=O)c3ccccc3Sc3ccc(C(=O)OCc4ccco4)cc32)cc1`, inactive: 132%.

Regarding `CCOc1ccc2nc(NC(=O)CS(=O)(=O)c3ccc(Cl)cc3)sc2c1`, the survival was inactive: 75%. The same measure for `Cc1ccc(C2c3c(oc4ccccc4c3=O)C(=O)N2c2ccc(C)cn2)cc1` (centres undefined): inactive: 64%; for `Cc1ccc(C(C)C)c(OCC(=O)Nc2ccc(S(=O)(=O)Nc3onc(C)c3C)cc2)c1`: inactive: 159%. The same measure for `CCCNC(=O)c1cnn2c(C)c(Cc3c(C)cc(C)cc3C)c(C)nc12`: inactive: 65%; for `COc1ccc(NC(=O)c2cc3nc(-c4ccc(Cl)c(Cl)c4)cc(C(F)(F)F)n3n2)c(OC)c1`: inactive: 75%; for `Cc1sc2ncn(CC(=O)Nc3ccc(F)cc3F)c(=O)c2c1S(=O)(=O)N1CCC(C)CC1`: inactive: 93%.

`CCOc1ccccc1NC(=O)N1CCC(n2c(C)nc3cccnc32)CC1`: the survival is inactive: 78%.

Turning to `O=C1CCCC2=C1C(c1ccc3c(c1)OCO3)c1c([nH]c(=O)[nH]c1=O)N2` (centres undefined), the survival was inactive: 111%. The same measure for `COc1ccc(CNC(=O)CCc2cn(C)c3ccccc23)cc1`: inactive: 83%. With `COc1ccc(C(=O)NC2CC(=O)N(c3ccc4c(c3)OCCO4)C2)cc1` (centres undefined) the figure was inactive: 143%. The same measure for `CN(C)c1cc(N)c2c(n1)CCC2`: inactive: 86%; for `Cc1c(-c2nnc(SCC(=O)Nc3ccccc3F)o2)nnn1-c1ccc(F)cc1`: inactive: 72%; for `Cc1ccc(C(=O)N/C(=C/c2ccc3c(c2)OCO3)C(=O)O)cc1`: inactive: 104%. Consider `CCNC(=O)Nc1ccc2nc(C)n(Cc3cccc(Cl)c3)c(=O)c2c1`, for which the survival is inactive: 115%. With `COc1cccc(N2CCN(S(=O)(=O)c3cn(C)c(C)n3)CC2)c1` the figure was inactive: 94%; with `CC(NC(=O)c1ccc(F)cc1)C(=O)O` (centres undefined), inactive: 106%; with `Cc1ccc(CCNC(c2ccc(F)cc2)c2nnc(-c3ccccc3Cl)o2)cc1` (centres undefined), active: 0%. The same measure for `CCOc1ccc(CNC(=O)c2cccc(NC(=O)N3CCSc4ncccc43)c2)cc1`: inactive: 100%.

Consider `CCn1c(C(=O)N2CCC(C(=O)N3CCN(c4cc(C)ccc4C)CC3)CC2)cc2sccc21`, for which the survival was inactive: 41%. The same measure for `COc1ccc(CNC(=O)c2ccc3nc(CCc4ccccc4)oc3c2)cc1OC`: inactive: 71%; for `CC(=O)N1CCc2cc(S(=O)(=O)NC(CC(C)C)C(=O)Nc3ccc(C(C)C)cc3)ccc21` (centres undefined): inactive: 73%. The same measure for `CC(C)Cn1cc(NC(=O)Nc2cccc(C(F)(F)F)c2)c2ccccc2c1=O`: inactive: 54%; for `CCOC(=O)N1CCc2c(sc3c2c(=O)n(Cc2ccccc2)c(=O)n3Cc2cc(C)ccc2C)C1`: inactive: 88%. With `CC(=O)N1c2ccc(S(=O)(=O)N3CCCCCC3)cc2CC1C(=O)NC(C)C` (centres undefined) the figure was inactive: 68%; with `CCOC(=O)c1c(C)sc(-c2c(-c3ccc4c(c3)OCCO4)[nH]c3c2c(=O)n(C)c(=O)n3C)c1O`, inactive: 133%. Turning to `Cc1cc(-c2ccc(C)c(S(=O)(=O)N3CCC(C)CC3)c2)on1`, the survival was inactive: 115%. The same measure for `CC(C)CC(=O)Nc1nc2c(s1)CC(C(C)(C)C)CC2` (centres undefined): inactive: 136%; for `Cc1ccc2nsnc2c1S(=O)(=O)NC(C)(C)C`: inactive: 96%; for `CCc1nn(CCCC(=O)N2CCN(c3cc(Cl)ccc3C)CC2)c(=O)c2cc3occc3n12`: inactive: 76%. The same measure for `COc1ccc(CC(=O)NC2CC(=O)N(c3cccc(F)c3)C2)cc1OC` (centres undefined): inactive: 78%; for `CCCC1CC(C)(c2csc(NCC)n2)OC1=O` (centres undefined): inactive: 112%. With `C=CS(=O)(=O)c1ccc(Oc2ccc(S(=O)(=O)C=C)cc2)cc1` the figure was inactive: 108%; with `CCOC(=O)c1c(C)n(S(=O)(=O)c2ccc(C)cc2C)c2ccc(NS(=O)(=O)c3ccc(C)cc3C)cc12`, inactive: 115%.

Take `CCCS(=O)(=O)N1CCN(S(=O)(=O)CCC)CC1`: the survival was inactive: 105%. The same measure for `COc1ccccc1Nc1sc(C(=O)c2ccc3c(c2)OCO3)c(N)c1S(=O)(=O)c1ccccc1`: inactive: 83%; for `Cc1ccc(C2=Nc3ccccc3N(CC(=O)Nc3ccccc3F)C(=O)C2)cc1C`: inactive: 83%. With `CCCCN1C(=O)c2[nH]nc(-c3ccccc3O)c2C1c1ccc(C(C)(C)C)cc1` (centres undefined) the figure was inactive: 106%; with `CCC1Oc2ccc(C)cc2N(CC(=O)NCc2ccc(OC)cc2)C1=O` (centres undefined), inactive: 68%; with `CCN(CC)CCCNC(=O)Cc1ccc(NC(=O)N2CCCCc3ccccc32)cc1`, inactive: 71%. As for `O=c1oc2ccccc2cc1-c1nnc(Nc2ccc(Cl)cc2Cl)s1`, the survival was inactive: 67%. The same measure for `O=C(Nc1cccc(Cl)c1)c1ccc2nc(CCc3ccccc3)oc2c1`: inactive: 73%; for `CCCn1c2ccccc2c2cnn(CC(=O)NCc3ccccc3Cl)c(=O)c21`: inactive: 120%; for `Cc1ccc(-c2nc3cc(Cl)ccc3o2)cc1NC(=O)c1cc([N+](=O)[O-])ccc1N1CCOCC1`: inactive: 99%. Consider `CC(=O)NC1CC(=O)N(c2ccc3c(c2)OCCO3)C1` (centres undefined), for which the survival is inactive: 66%. With `Cc1nc(-c2ccccc2)sc1-c1ccc(SCC(=O)Nc2cccc(C(F)(F)F)c2)nn1` the figure was inactive: 67%; with `CCC(=O)N1CCc2cc(Br)cc(S(=O)(=O)N3CCC(C(=O)Nc4ccccc4CC)CC3)c21`, inactive: 89%. The same measure for `COc1ccc(NC(=O)CSCC(=O)O)cc1`: inactive: 102%; for `COc1cccc(C2CC(=O)Nc3cc4c(cc32)OCO4)c1OC(C)C` (centres undefined): inactive: 91%; for `O=C1c2ccccc2C2(c3ccccc3)NCCCN12` (centres undefined): inactive: 111%. The same measure for `CC(C)Oc1ccc(CNC(=O)C2CCN(c3nc4ccccc4nc3C(F)(F)F)CC2)cc1`: inactive: 88%; for `CCOc1cc(C(=O)Nc2ccncc2)cc(OCC)c1OCC`: inactive: 100%; for `COc1cc(OC)c(NC(=O)C2CCN(C(=O)c3sc4nc[nH]c(=O)c4c3C)CC2)cc1Cl`: inactive: 117%. For the molecule `CCOC(=O)C1CCN(C(c2cccc(F)c2)c2c(O)cc(C)n(Cc3ccco3)c2=O)CC1` (centres undefined), the survival was inactive: 132%. With `COCCCNC(=O)c1cnc2c(-c3ccc(F)cc3)c(C)nn2c1C` the figure was inactive: 134%; with `Cn1nc(-c2ccccc2F)c2cc(C(=O)NCCc3ccc(Cl)cc3)sc21`, inactive: 83%. Take `CCOc1cccc(C(=O)N2CCC(c3nc4ccccc4s3)CC2)c1`: the survival is inactive: 86%. With `COc1ccc(-c2noc(N(c3cccc(Cl)c3)c3nc(-c4ccc(OC)c(OC)c4)no3)n2)cc1OC` the figure was inactive: 164%; with `O=C(c1ccc(Br)cc1)N1CCN(CCc2ccncc2)CC1`, inactive: 89%. The same measure for `CN(C)c1ccc(CNC(=O)c2cnc3sc(N4CCOCC4)nn3c2=O)cc1`: inactive: 94%; for `CCOc1ccc(-c2nc(SCC(=O)c3ccccc3)n[nH]2)cc1`: inactive: 154%. With `CC(=O)c1ccc(NC(=O)CSc2ccc(-c3cccs3)nn2)cc1` the figure was inactive: 133%; with `Cc1ccc(S(=O)(=O)Cc2ccc(C(=O)NCCc3ccc(Cl)cc3)o2)cc1`, inactive: 79%; with `Brc1cccc(-c2nnc(CN3CCN(c4ccccn4)CC3)o2)c1`, inactive: 79%. Regarding `CCOC(=O)c1c(NC(=O)c2ccc(S(=O)(=O)N3CCC(C)CC3)cc2)sc2c1CCN(CC)C2`, the survival is inactive: 71%. The same measure for `CCn1c(C)nnc1SCC(=O)Nc1cccc(Cl)c1`: inactive: 99%. The same measure for `Cc1cccc(-n2cc(-c3ccccc3)c3c(NC4CCCC4)ncnc32)c1`: inactive: 120%; for `C=Cc1ccc(Cn2nc(-c3ccc(C)cc3)ccc2=O)cc1`: inactive: 57%; for `CCOC(=O)c1cc(C)n(CC2CCC(C(=O)Nc3cccc(C)c3)CC2)c1C` (centres undefined): inactive: 73%. The same measure for `Cc1cc(C)nc(NC(=NCCc2c[nH]c3ccc(Cl)cc23)NC(=O)c2ccccc2C)n1`: inactive: 86%; for `COC(=O)C1=C(C)NC(=O)C1(NC(=O)c1cc(OC)c(OC)c(OC)c1)C(F)(F)F` (centres undefined): inactive: 70%; for `CCOC(=O)c1c(S(=O)(=O)N2CCCC(C(=O)Nc3cc(C)ccn3)C2)c(C)n(C)c1C` (centres undefined): inactive: 75%. For `COc1ccc(CCN2C(=O)C3C(C(=O)Nc4cc(C)on4)C4(C)C=CC3(O4)C2C(=O)NC2CCCCC2)cc1` (centres undefined), the survival was inactive: 116%. With `COc1ccc(OC)c(NC(=O)C2CCN(S(=O)(=O)c3ccc4c(c3)CCCC(=O)N4)CC2)c1`, the survival was inactive: 63%.

For the molecule `CCOC(=O)c1ccc(NC(=O)CCC(=O)N2Cc3ccccc3Oc3ncccc32)cc1`, the survival was inactive: 101%. The same measure for `O=C(O)CCCn1cnc2ccccc2c1=O`: inactive: 114%. The same measure for `O=C(NC1CCCCC1)c1ccc(CSc2nc3cccnc3n2Cc2ccc(F)cc2)cc1`: inactive: 19%; for `Cc1cccc(-n2c(Cc3ccccc3)nnc2SCc2nc(-c3cccs3)no2)c1`: inactive: 63%. The same measure for `O=C1c2[nH]nc(-c3ccccc3O)c2C(c2ccccc2F)N1Cc1cccnc1` (centres undefined): inactive: 94%; for `Cc1ccc2cc(C#N)c(NCCNC(=O)Nc3ccccc3C)nc2c1`: inactive: 117%; for `O=C1CC(c2nnc(Cc3ccc(F)cc3Cl)o2)CN1c1ccccc1` (centres undefined): inactive: 110%. Regarding `O=C(CN1C(=O)COc2ccc(S(=O)(=O)N3CCCC3)cc21)N1CCN(c2ccc(F)cc2)CC1`, the survival was inactive: 93%. As for `O=C(NCc1ccco1)C1CCN(S(=O)(=O)Cc2ccccc2)CC1`, the survival is inactive: 108%. The same measure for `COCCNc1ccc(-c2nc(-c3ccco3)no2)cc1[N+](=O)[O-]`: inactive: 79%. The same measure for `CCOC(=O)c1ccc(N2C(=O)c3n[nH]c(-c4ccco4)c3C2c2ccc(O)c(OCC)c2)cc1` (centres undefined): inactive: 67%; for `Cc1cccc(Nc2nnc(-c3ccc(C)c(S(=O)(=O)NCC4CCCO4)c3)c3ccccc23)c1` (centres undefined): inactive: 81%; for `COC(=O)c1ccc(NC(=O)CN2C(=O)CCc3cc(S(=O)(=O)N4CCCCC4)ccc32)cc1`: inactive: 74%.
